Measurements as given in the supplement of paper PMC7826260.
This is one part of the list. One pool of 16,384 single-stranded DNAs met each Rep nickase domain in vitro at 3 µM enzyme and 37 °C for 1 h; the strands have 90 letters, of which the middle is given. Values are log2 of uncut reads against the no-enzyme pool; the lower, the more was cut; hits are not called. Shares of all reads are compared; values above 0 arise when much of the pool is cut.

Tests used:
Assay in all cases: uncleaved DNA left, log2 of reads against the no-enzyme library (log2 ratio); higher = less cleavage (more negative = more Rep cleavage of the k-mer); sequences stand for … in CTCGTCCG…ACCGGAGA
[1] = test system: T1, Rep nickase domain of Muscovy duck circovirus
T1 sequence (residues 1-111 of Rep, tag left off): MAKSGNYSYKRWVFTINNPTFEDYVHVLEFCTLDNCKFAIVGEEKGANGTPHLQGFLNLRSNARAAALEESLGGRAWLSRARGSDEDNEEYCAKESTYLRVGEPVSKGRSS
Protocol: (§1)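 A pool of 90-nt single-stranded DNAs with seven random bases just before the constant AC of the nick site (name = the seven bases) was cut by 3 µM recombinant His6-SUMO-tagged Rep nickase domain (300 nM DNA, 50 mM HEPES pH 8.0, 50 mM NaCl, 1 mM MnCl2, 1 h, 37 °C, three replicates). Uncut DNA was amplified and sequenced.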

[2] = test system: T2, Rep nickase domain of banana bunchy top virus
T2 sequence (residues 1-94 of Rep, tag left off): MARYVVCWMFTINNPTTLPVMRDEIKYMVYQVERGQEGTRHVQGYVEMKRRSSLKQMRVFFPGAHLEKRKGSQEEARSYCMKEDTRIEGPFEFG
Protocol: as §1

[3] = test system: T3, Rep nickase domain of cabbage leaf curl virus
T3 sequence (residues 1-116 of Rep, tag left off): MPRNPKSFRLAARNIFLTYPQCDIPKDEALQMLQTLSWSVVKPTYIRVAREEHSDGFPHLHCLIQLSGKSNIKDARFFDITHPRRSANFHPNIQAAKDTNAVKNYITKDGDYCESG
Protocol: as §1

[4] = test system: T4, Rep nickase domain of chickpea chlorotic dwarf virus
T4 sequence (residues 1-124 of Rep, tag left off): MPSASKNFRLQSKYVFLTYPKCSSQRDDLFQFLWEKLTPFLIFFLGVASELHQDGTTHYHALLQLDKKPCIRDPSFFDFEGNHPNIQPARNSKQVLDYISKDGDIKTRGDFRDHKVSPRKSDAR
Protocol: as §1

[5] = test system: T5, Rep nickase domain of faba bean necrotic yellows virus
T5 sequence (residues 1-98 of Rep, tag left off): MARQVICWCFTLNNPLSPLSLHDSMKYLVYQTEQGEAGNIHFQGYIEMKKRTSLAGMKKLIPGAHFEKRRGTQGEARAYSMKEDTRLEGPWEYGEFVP
Protocol: as §1

[6] = test system: T6, Rep nickase domain of maize striate mosaic virus
T6 sequence (residues 1-117 of Rep, tag left off): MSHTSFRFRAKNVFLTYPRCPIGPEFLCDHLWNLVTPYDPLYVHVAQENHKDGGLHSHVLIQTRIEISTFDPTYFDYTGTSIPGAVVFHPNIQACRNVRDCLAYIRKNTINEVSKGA
Protocol: as §1

[7] = test system: T7, Rep nickase domain of porcine circovirus 2
T7 sequence (residues 2-116 of Rep, tag left off): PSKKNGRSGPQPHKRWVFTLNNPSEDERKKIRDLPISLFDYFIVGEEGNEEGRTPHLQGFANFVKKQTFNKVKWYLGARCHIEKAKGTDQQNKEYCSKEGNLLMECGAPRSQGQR
Protocol: as §1

[8] = test system: T8, Rep nickase domain of tomato yellow leaf curl virus
T8 sequence (residues 1-136 of Rep, tag left off): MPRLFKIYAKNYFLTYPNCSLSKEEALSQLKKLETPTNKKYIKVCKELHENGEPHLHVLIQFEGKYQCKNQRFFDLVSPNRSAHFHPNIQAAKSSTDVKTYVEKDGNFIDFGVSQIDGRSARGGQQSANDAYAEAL
Protocol: as §1

[9] = test system: T9, Rep nickase domain of wheat dwarf virus
T9 sequence (residues 1-137 of Rep, tag left off): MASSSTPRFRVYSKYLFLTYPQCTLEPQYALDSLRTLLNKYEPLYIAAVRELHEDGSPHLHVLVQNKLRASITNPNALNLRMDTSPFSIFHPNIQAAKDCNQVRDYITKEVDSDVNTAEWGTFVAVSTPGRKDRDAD
Protocol: as §1

Sequence | uncleaved DNA left (log2) [1] | uncleaved DNA left (log2) [2] | uncleaved DNA left (log2) [3] | uncleaved DNA left (log2) [4] | uncleaved DNA left (log2) [5] | uncleaved DNA left (log2) [6] | uncleaved DNA left (log2) [7] | uncleaved DNA left (log2) [8] | uncleaved DNA left (log2) [9]
CCTCTTA | -0.0379 | 0.0278 | -0.112 | -1.18 | -0.121 | -0.712 | -0.129 | -0.0303 | -0.104
ACACCAC | 0.157 | 0.152 | 0.0304 | -0.362 | 0.188 | -0.372 | 0.194 | -0.0704 | 0.0991
ACGGCGA | 0.126 | 0.0601 | -0.56 | 0.208 | -0.00375 | -0.415 | 0.462 | 0.132 | -0.00522
CAACTGA | 0.0258 | -0.0487 | -0.0426 | 0.268 | 0.0278 | 0.939 | 0.0331 | 0.0431 | -0.0255
CGCGTGT | -0.0832 | -0.209 | -0.212 | -0.0948 | -0.131 | -0.0204 | -0.205 | -0.126 | -0.237
GTTCCAG | 0.048 | 0.0487 | 0.243 | 0.556 | -0.03 | 0.584 | 0.019 | 0.129 | 0.042
AGGCAAT | 0.0368 | 0.125 | 0.363 | 1.37 | -0.00508 | 1.53 | 0.0581 | -0.023 | 0.146
TCTATCG | -0.0873 | -0.0729 | -0.869 | -0.472 | -0.139 | -1.2 | -0.0267 | -0.0675 | -0.179
ACGCATT | 0.106 | 0.237 | -0.208 | -1.39 | 0.11 | -0.606 | -0.251 | 0.164 | 0.173
AGGCCCT | -0.0899 | -0.0414 | 0.731 | 1.42 | -0.116 | 2.1 | -0.143 | 0.0146 | 0.0955
CAAAAAT | -0.0118 | -0.0499 | -2.19 | -2.96 | 0.0371 | -0.924 | -0.561 | -0.196 | -0.742
TTAGCAC | 0.0116 | -0.0287 | -0.0473 | -0.27 | 0.0172 | -0.844 | 0.0499 | -0.0156 | -0.0791
TATACAC | -0.036 | 0.0224 | 0.256 | -0.514 | 0.07 | -0.104 | 0.0851 | 0.0187 | 0.101
CACTATC | 0.0912 | 0.0445 | -0.024 | -0.508 | -0.00857 | -0.49 | -2.14 | 0.0813 | 0.024
GCAGCAG | 0.0675 | 0.0209 | -0.583 | -0.371 | 0.034 | -0.773 | 0.168 | 0.0393 | -0.0512
